Over roughly 33,000 sequences, “E-score (-0.5 to 0.5)” has its median near -0.041; the highest 2% begin near 0.37. The list shows a part of the results.
target: T1, Ecm22 (UniProt Q05958); assay: PBM E-score (8-mer binding enrichment) (E-score (-0.5 to 0.5)); higher = stronger / more preferred TF binding; most listed sequences are background and not binding sites; settings: protein concentration: 200 nM; construct: GST-full length
T1 sequence: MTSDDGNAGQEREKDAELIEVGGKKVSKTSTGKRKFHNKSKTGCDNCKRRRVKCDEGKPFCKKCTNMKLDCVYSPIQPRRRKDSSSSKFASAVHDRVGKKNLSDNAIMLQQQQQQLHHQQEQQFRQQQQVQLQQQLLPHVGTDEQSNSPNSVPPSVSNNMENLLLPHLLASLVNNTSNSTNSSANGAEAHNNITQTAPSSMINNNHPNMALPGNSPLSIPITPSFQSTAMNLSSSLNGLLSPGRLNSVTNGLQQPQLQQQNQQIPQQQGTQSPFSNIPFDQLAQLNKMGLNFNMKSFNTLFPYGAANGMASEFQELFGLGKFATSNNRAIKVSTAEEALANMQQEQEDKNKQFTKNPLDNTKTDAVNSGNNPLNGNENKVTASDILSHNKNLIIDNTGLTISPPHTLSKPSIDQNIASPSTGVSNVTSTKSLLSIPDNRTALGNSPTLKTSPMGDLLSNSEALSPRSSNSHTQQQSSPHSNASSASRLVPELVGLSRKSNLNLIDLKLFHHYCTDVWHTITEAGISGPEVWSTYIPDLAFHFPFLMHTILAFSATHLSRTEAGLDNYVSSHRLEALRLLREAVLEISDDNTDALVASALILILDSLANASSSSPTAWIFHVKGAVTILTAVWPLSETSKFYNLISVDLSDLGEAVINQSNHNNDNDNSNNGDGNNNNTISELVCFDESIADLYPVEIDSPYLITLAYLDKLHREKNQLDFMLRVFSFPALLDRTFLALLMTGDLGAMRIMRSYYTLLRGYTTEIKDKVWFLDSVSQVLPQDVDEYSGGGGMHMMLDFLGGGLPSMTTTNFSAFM
Procedure: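 Universal 'all 10-mer' protein binding microarrays (Agilent AMADID 015681) probed with GST-tagged S. cerevisiae TFs (full-length or DBD) made by in vitro transcription/translation (PURExpress), about 100-200 nM. Bound TF was detected with fluorescent anti-GST. Each ungapped 8-mer (which stands for itself and its reverse complement) is scored by the PBM enrichment score (E-score), a modified Wilcoxon-Mann-Whitney statistic from -0.5 to +0.5, computed with the Universal PBM Analysis Suite. Scale: above 0.35 generally sequence-specific binding.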

Sequence	PBM E-score
GTCAGCGA	-0.206
ACGGGACG	0.232
AATCAGGG	-0.29
ATGAATTG	-0.027
GCACCCCA	0.0124
AGGTCTAA	0.00436
ACATGCCC	-0.0896
CCCGTAGA	-0.00351
ACCACGGT	-0.195
ACAATCGC	0.226
CAAGTCCG	-0.0213
AAATATGT	0.251
AAAATACT	-0.198
ACCGCACA	-0.0742
ACCTATTC	0.0363
AAAGGCTA	-0.194
GATTCTAA	0.0816
GTCATTGA	-0.121
AAATCGGA	0.0916
AAGTCCGG	-0.147
AGTAAGAG	-0.101
AACATAGG	-0.0983

Sequence	PBM E-score
CACACCGC	0.00932
TAAACTGA	-0.00079
GCGTCACA	-0.0587
CCTCCAAA	0.0418
ACGTCGGC	0.0782
ACGCTCGA	0.0433
AGTTGTAG	-0.125
GCTGCGCA	-0.183
ACAAGGGA	-0.202
GCTAAGTA	-0.0177
CCTTTGCA	-0.0826
AGCTGACA	-0.112
AGCGGCCT	-0.18
CCGTATTC	0.282
ACAGCACA	0.0791
GCCCCGCA	-0.164
CGGCTTTA	0.0433
ATCTGTAA	-0.0737
ACTTAGCT	-0.147
ACCTGTCT	-0.1
AACTAACG	0.141
GCCTAGGA	-0.275

Sequence	PBM E-score
CAATTGAG	-0.015
CTGCTTGC	-0.103
ACACCCCG	-0.0824
ATGGGCAG	-0.0905
CCAAACGA	0.437
CCCGAAGA	0.0524
GCGAGAAC	0.242
TACGGCCA	0.245
GCATCCGA	0.0366
AGTCGACC	-0.112
GTAACACA	0.099
CGGACTGA	-0.0426
AACAGTAG	0.0314
CGCCCCTA	-0.104
CAAGAGAA	0.177
ACGACGTC	0.393
CGTACTGA	0.32
CGATCGGC	-0.0318
GGACTAAA	-0.133
AATCAGAG	-0.0473
AAAGTCGC	0.0917
ATCTATCG	0.0416

Sequence	PBM E-score
ACGGAGCT	0.0831
AAGCCCCA	-0.2
ATTTTCTG	-0.00936
ATAACTGC	-0.245
AGCAAGTC	-0.228
TGGCTCAA	-0.132
AATCTGAT	-0.156
CCTCTTAC	0.0146
CGTTCAAA	0.361
AGTTCCTG	-0.175
CATTGCGA	0.00848
GGATTCCC	-0.208
CATTGAGA	-0.0539
GGGTTAAC	0.0136
AGCAAACA	0.0546
CCAGGTCA	-0.311
CAGCGTCA	-0.262
GCTCTGCC	-0.222
CCCTAGCA	-0.154
GTGTAGAA	0.0801
